# Test results taken from the supplement of paper PMC11741623.
# The list shows a part of the results. Interaction screen of human proteins with wild-type SARS-CoV-2 proteins by split-DHFR complementation in yeast, 1 µg/mL methotrexate. Value = fitness of the pair (three or more lineages) minus that of the viral protein without a human partner, on a scale set by negative (0) and fused positive (1) controls, mean of up to three cultures; higher = more likely to interact. Active = false discovery rate below 0.05 (one-sided t-test) in at least one culture. Nearly all pairs are not hits, and differences among them are mostly noise (correlation between cultures about 0.3); most hits were seen in one culture only. Human sequences are the Swiss-Prot entries looked up by gene name; the clone may be another isoform. NSP2 values were corrected by the authors for a growth advantage. Listed are human proteins with a hit and a random twelfth of the others.
# B1: IRF5, Q13568 (protein)
# chain: MNQSIPVAPTPPRRVRLKPWLVAQVNSCQYPGLQWVNGEKKLFCIPWRHATRHGPSQDGDNTIFKAWAKETGKYTEGVDEADPAKWKANLRCALNKSRDFRLIYDGPRDMPPQPYKIYEVCSNGPAPTDSQPPEDYSFGAGEEEEEEEELQRMLPSLSLTEDVKWPPTLQPPTLRPPTLQPPTLQPPVVLGPPAPDPSPLAPPPGNPAGFRELLSEVLEPGPLPASLPPAGEQLLPDLLISPHMLPLTDLEIKFQYRGRPPRALTISNPHGCRLFYSQLEATQEQVELFGPISLEQVRFPSPEDIPSDKQRFYTNQLLDVLDRGLILQLQGQDLYAIRLCQCKVFWSGPCASAHDSCPNPIQREVKTKLFSLEHFLNELILFQKGQTNTPPPFEIFFCFGEEWPDRKPREKKLITVQVVPVAARLLLEMFSGELSWSADSIRLQISNPDLKDRMVEQFKELHHIWQSQQRLQPVAQAPPGAGLGVGQGPWPMHPAGMQ
# B2: PCOLCE2, Q9UKZ9 (protein)
# chain: MRGANAWAPLCLLLAAATQLSRQQSPERPVFTCGGILTGESGFIGSEGFPGVYPPNSKCTWKITVPEGKVVVLNFRFIDLESDNLCRYDFVDVYNGHANGQRIGRFCGTFRPGALVSSGNKMMVQMISDANTAGNGFMAMFSAAEPNERGDQYCGGLLDRPSGSFKTPNWPDRDYPAGVTCVWHIVAPKNQLIELKFEKFDVERDNYCRYDYVAVFNGGEVNDARRIGKYCGDSPPAPIVSERNELLIQFLSDLSLTADGFIGHYIFRPKKLPTTTEQPVTTTFPVTTGLKPTVALCQQKCRRTGTLEGNYCSSDFVLAGTVITTITRDGSLHATVSIINIYKEGNLAIQQAGKNMSARLTVVCKQCPLLRRGLNYIIMGQVGEDGRGKIMPNSFIMMFKTKNQKLLDALKNKQC
# B3: WBSCR28, Q6UE05 (protein)
# chain: MEALPPVRSSLLGILLQVTRLSVLLVQNRDHLYNFLLLKINLFNHWVSGLAQEARGSCNWQAHLPLGAAACPLGQALWAGLALIQVPVWLVLQGPRLMWAGMWGSTKGLGLALLSAWEQLGLSVAIWTDLFLSCLHGLMLVALLLVVVTWRVCQKSHCFRLGRQLSKALQVNCVVRKLLVQLRRLYWWVETMTALTSWHLAYLITWTTCLASHLLQAAFEHTTQLAEAQEVEPQEVSGSSLLPSLSASSDSESGTVLPEQETPRE
# B4: PTRHD1, Q6GMV3 (protein)
# chain: MHRGVGPAFRVVRKMAASGAEPQVLVQYLVLRKDLSQAPFSWPAGALVAQACHAATAALHTHRDHPHTAAYLQELGRMRKVVLEAPDETTLKELAETLQQKNIDHMLWLEQPENIATCIALRPYPKEEVGQYLKKFRLFK
# Target: SARS-CoV-2 E
# Assay: yeast fitness gain over the viral ORF with no human partner (scaled fitness); higher = more likely to interact
# Method: (§1)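 Split mouse DHFR complementation in pooled diploid yeast: human ORFeome clones carry one fragment and viral ORFs the other; barcoded lineages compete in 1 µg/mL methotrexate and fitness is read by barcode sequencing in up to three cultures.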
row,Binder,yeast fitness gain
1,B1,inactive: 0.0135
2,B2,inactive: 0.118
3,B3,inactive: 0.031
4,B4,inactive: 0.0646

# Target: SARS-CoV-2 M
# Assay: as above
# Method: as §1
row,Binder,yeast fitness gain
1,B1,inactive: -0.0577
2,B2,inactive: -0.0314
3,B3,inactive: 0.0495
4,B4,inactive: -0.0139

# Target: SARS-CoV-2 N
# Assay: as above
# Method: as §1
row,Binder,yeast fitness gain
1,B1,inactive: 0.129
2,B3,inactive: -0.0126
3,B4,inactive: 0.094

# Target: SARS-CoV-2 NSP1
# Assay: as above
# Method: as §1
row,Binder,yeast fitness gain
1,B1,inactive: -0.0271
2,B2,inactive: 0.0118
3,B3,inactive: 0.0352
4,B4,inactive: 0.0195

# Target: SARS-CoV-2 NSP10
# Assay: as above
# Method: as §1
row,Binder,yeast fitness gain
1,B1,inactive: -0.0105
2,B2,inactive: 0.0157
3,B3,inactive: 0.0264
4,B4,inactive: 0.00376

# Target: SARS-CoV-2 NSP12
# Assay: as above
# Method: as §1
row,Binder,yeast fitness gain
1,B1,inactive: 0.111
2,B2,inactive: 0.039
3,B3,inactive: 0.0332
4,B4,inactive: 0.0196

# Target: SARS-CoV-2 NSP13
# Assay: as above
# Method: as §1
row,Binder,yeast fitness gain
1,B1,inactive: -0.0136
2,B2,inactive: 0.0121
3,B3,inactive: -0.00244
4,B4,inactive: 0.0591

# Target: SARS-CoV-2 NSP15
# Assay: as above
# Method: as §1
row,Binder,yeast fitness gain
1,B1,inactive: 0.0132
2,B3,inactive: 0.0133
3,B4,inactive: 0.0341

# Target: SARS-CoV-2 NSP16
# Assay: as above
# Method: as §1
row,Binder,yeast fitness gain
1,B1,inactive: -0.0489
2,B2,inactive: -0.096
3,B3,inactive: -0.0105
4,B4,inactive: 0.0365

# Target: SARS-CoV-2 NSP2
# Assay: as above
# Method: as §1
row,Binder,yeast fitness gain
1,B1,inactive: -0.0786
2,B2,inactive: -0.132
3,B3,inactive: -0.0617
4,B4,inactive: -0.0753

# Target: SARS-CoV-2 NSP5
# Assay: as above
# Method: as §1
row,Binder,yeast fitness gain
1,B1,inactive: 0.00965
2,B2,inactive: -0.0431
3,B3,inactive: 0.0105
4,B4,inactive: 0.0379

# Target: SARS-CoV-2 NSP6
# Assay: as above
# Method: as §1
row,Binder,yeast fitness gain
1,B1,inactive: -0.0869
2,B2,inactive: -0.00213
3,B3,inactive: 0.035
4,B4,inactive: -0.0101

# Target: SARS-CoV-2 NSP7
# Assay: as above
# Method: as §1
row,Binder,yeast fitness gain
1,B1,inactive: 0.0382
2,B2,inactive: 0.0528
3,B3,inactive: -0.0105
4,B4,inactive: -0.0258

# Target: SARS-CoV-2 NSP8
# Assay: as above
# Method: as §1
row,Binder,yeast fitness gain
1,B1,inactive: 0.0803
2,B2,inactive: 0.0216
3,B3,inactive: 0.0292
4,B4,inactive: -0.00145

# Target: SARS-CoV-2 NSP9
# Assay: as above
# Method: as §1
row,Binder,yeast fitness gain
1,B1,inactive: 0.0175
2,B2,inactive: 0.0755
3,B3,inactive: 0.0494
4,B4,inactive: 0.0387

# Target: SARS-CoV-2 ORF10
# Assay: as above
# Method: as §1
row,Binder,yeast fitness gain
1,B1,inactive: 0.0113
2,B2,inactive: -0.0448
3,B3,inactive: 0.0157
4,B4,inactive: 0.0688

# Target: SARS-CoV-2 ORF3A
# Assay: as above
# Method: as §1
row,Binder,yeast fitness gain
1,B1,inactive: -0.112
2,B2,inactive: 0.00654
3,B3,inactive: 0.0114
4,B4,inactive: -0.0841

# Target: SARS-CoV-2 ORF3B
# Assay: as above
# Method: as §1
row,Binder,yeast fitness gain
1,B1,inactive: -0.0273
2,B2,inactive: 0.0251
3,B3,inactive: 0.0194
4,B4,inactive: 0.00585

# Target: SARS-CoV-2 ORF6
# Assay: as above
# Method: as §1
row,Binder,yeast fitness gain
1,B1,inactive: -0.0649
2,B2,inactive: -0.0195
3,B3,inactive: 0.0269
4,B4,inactive: 0.00763

# Target: SARS-CoV-2 ORF7A
# Assay: as above
# Method: as §1
row,Binder,yeast fitness gain
1,B1,inactive: -0.101
2,B2,inactive: -0.175
3,B3,inactive: 0.0343
4,B4,inactive: 0.0462

# Target: SARS-CoV-2 ORF7B
# Assay: as above
# Method: as §1
row,Binder,yeast fitness gain
1,B1,inactive: 0.0356
2,B2,inactive: 0.0609
3,B3,inactive: 0.0565
4,B4,inactive: 0.0145

# Target: SARS-CoV-2 ORF8
# Assay: as above
# Method: as §1
row,Binder,yeast fitness gain
1,B1,inactive: 0.0227
2,B2,inactive: 0.0101
3,B3,inactive: 0.0271
4,B4,inactive: -0.0121

# Target: SARS-CoV-2 ORF9B
# Assay: as above
# Method: as §1
row,Binder,yeast fitness gain
1,B1,inactive: 0.00882
2,B2,inactive: -0.0768
3,B3,inactive: -0.0455
4,B4,inactive: 0.0157

# Target: SARS-CoV-2 ORF9Bwu (the 73-codon ORF)
# Assay: as above
# Method: as §1
row,Binder,yeast fitness gain
1,B1,inactive: -0.00747
2,B2,inactive: -0.0141
3,B3,inactive: 0.0185
4,B4,inactive: -0.00611

# Target: SARS-CoV-2 S
# Assay: as above
# Method: as §1
row,Binder,yeast fitness gain
1,B1,inactive: -0.0758
2,B2,inactive: 0.0868
3,B3,inactive: 0.0338
4,B4,inactive: -0.0448

# Target: SARS-CoV-2 NSP14
# Assay: as above
# Method: as §1
row,Binder,yeast fitness gain
1,B2,inactive: -0.231
2,B3,inactive: -0.000888
3,B4,inactive: 0.115

# Target: SARS-CoV-2 NSP4
# Assay: as above
# Method: as §1
row,Binder,yeast fitness gain
1,B2,inactive: 0.107
2,B3,inactive: 0.0896
3,B4,inactive: 0.0523
